PubChem BioAssay AID686970 (National Center for Advancing Translational Sciences (NCATS), 2013)
Out of some 360,000 compounds screened, about 6,000 (1.7%) were called active. The inconclusive results got no clear call from the source; some entries with a clear call stand among them for comparison. Calls come from the whole dose curve; as a rule, active = well fitted cell-killing curve with a large enough effect; inconclusive = small, poorly fitted or top-dose-only effect, or effect the other way; inactive = flat fitted curve, though single readings scatter. Potencies of inconclusive entries are left out as doubtful fits.

Test: qHTS for induction of synthetic lethality in tumor cells producing 2HG: qHTS for the HT-1080-NT fibrosarcoma cell line;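 note: NT is the 2HG producing partner of a matched IDH1 knockdown line; nearly all actives have a fitted effect of over 55% in size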;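 for activity, negative = less viability: 0% = DMSO-treated cells and -100% = media-only wells without cells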
Details: HT-1080-NT fibrosarcoma viability, CellTiter-Glo ATP luminescence, 48 h; activity, negative = less viability: at 46.1 µM (top of the series) unless noted
Outline: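 Read-out is CellTiter-Glo luminescence after 10 minutes at room temperature, following 48 hours' compound treatment of HT-1080-NT cells (750 cells/well, RPMI, 5% FBS, 37 degrees C).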
Potency is the fitted concentration of half-maximal effect; tags give direction and shape of the fitted curve.

| SMILES | Potency | activity, negative = less viability |
| --- | --- | --- |
| Cc1cccc(CN2C(=O)/C(=C\c3ccc(C(=O)NCCN4CCOCC4)cc3)Sc3ccccc32)c1 | inconclusive [cytotoxic, single point] |  |
| Clc1ccc2[nH]c3c(c2c1)CCc1cn[nH]c1-3 | inconclusive [cytotoxic, single point] |  |
| CCS(=O)(=O)Nc1ccc(C2=NN(C(=O)c3ccco3)C(c3ccc(C)cc3)C2)cc1 (stereo not given) | inconclusive [cytotoxic, single point] |  |
| COCc1c(C(=O)N2CCN(Cc3ccc4c(c3)OCO4)CC2)oc2ccccc12 |  | inactive: -2.16% [at 9.24 µM] |
| Fc1ccc(/C=N/NC(=S)Nc2ccc(Cl)cc2Cl)cc1 |  | inconclusive: -35% [cytotoxic] |
| O=C(NC(=S)Nc1ccc(N2CCCCC2)c(Cl)c1)c1ccc2c(c1)OCCO2 | active: 11.6 µM |  |
| CCNc1ccc(Br)cc(C(=O)/C=C/c2c(Cl)cccc2Cl)c1=O | inconclusive [cytotoxic, single point] |  |
| Cc1ccccc1CNC(=O)/C=C\C(=O)O |  | inactive: 15.9% |
| NC(=O)[C@H]1CC2(CC(c3cccc(NC(=O)COc4ccc(Cl)cc4)c3)=NO2)CN1C(=O)Cc1ccc([N+](=O)[O-])cc1 (stereo not given in full) | inconclusive [cytotoxic, full curve] |  |
| Cc1cc(C)c2cc(CN(CCN3CCCC3)C(=O)Nc3ccc(F)cc3)c(=O)[nH]c2c1 | inconclusive [cytotoxic, single point] |  |
| Cc1c(Br)c([N+](=O)[O-])nn1CC(=O)Nc1ccc(C(C)C)cc1 |  | inactive: -28.2% |
| Cc1cccc(Nc2nc(-c3c(C)nc4ccccn34)cs2)c1 | inconclusive [cytotoxic, single point] |  |
| C#CC[N+](C)(C)CC#Cc1ccc(C)cc1 | inconclusive [cytotoxic, single point] |  |
| CC(C)c1nnc(NC(=O)c2nc(S(=O)(=O)Cc3ccccc3)ncc2Cl)s1 | active: 7.31 µM |  |
| CCOC(=O)c1[nH]c2c(c1C)C(=O)CC(c1ccc(F)cc1)C2 (stereo not given) | active: 2.06 µM |  |
| Cc1cc(C)nc(SCC(N)=O)n1 |  | inactive: 18.9% |
| CC(C)CC(/C(O)=C(\C#N)c1nc2ccccc2[nH]1)N1C(=O)c2ccccc2C1=O (stereo not given) | inconclusive [cytotoxic, partial curve] |  |
| COc1cccc(CNc2nc(NCc3ccccc3)nc3ccsc23)c1 | active: 20.6 µM |  |
| O=C(NCCc1c[nH]c2ccccc12)C(=O)NCC1OCCN1S(=O)(=O)c1ccc(Cl)cc1 (stereo not given) |  | inactive: 0% |
| CCOC(=O)C1(CCCc2ccccc2)CCN(Cc2cn(CC)nc2C)CC1 | inconclusive [cytotoxic, partial curve] |  |
| CCc1nc2c(OCCn3cccc3)cccn2c1N(C)C(=O)CC(C)C | inconclusive [rising, partial curve] |  |
| CCc1nc2ccc(C(=O)NCCOc3ccc(OC)cc3)cn2c1N(C)Cc1cccs1 | inconclusive [cytotoxic, single point] |  |
| CC1=CC(=O)C(C(C)C)=C/C1=N/OC(=O)c1cccc([N+](=O)[O-])c1 | active: 10 µM |  |

| SMILES | Potency | activity, negative = less viability |
| --- | --- | --- |
| Cn1cc([N+](=O)[O-])c(C(=O)Nc2nccs2)n1 | inconclusive [cytotoxic, partial curve] |  |
| CCOc1cccc(NC(=O)C2CCCN(S(=O)(=O)c3ccc(OC)cc3)C2)c1 (stereo not given) | inconclusive [cytotoxic, single point] |  |
| COc1ccc(S(=O)(=O)N2CCCC(C(=O)Nc3ccc(NC(=O)c4ccccn4)cc3)C2)cc1 (stereo not given) |  | inconclusive: -22.1% [cytotoxic] |
| C=CCN(c1ccccc1)S(=O)(=O)c1cccc(C(=O)NC2CCC(O)CC2)c1 (stereo not given) |  | inactive: -4.34% |
| O=C(CN1C(=O)c2ccccc2C1=O)NC1CCS(=O)(=O)C1 (stereo not given) |  | inactive: 6.71% |
| O=C(NCc1ccccc1)[C@@H]1CCCN1C(=O)[C@@H]1CCCN1C(=O)c1cccs1 |  | inactive: 9.64% |
| Cc1ccc(C2C3=C(CCCC3=O)N=C3c4ccccc4C(=O)C32)cc1 (stereo not given) |  | inactive: -28.1% |
| Cc1ccc2nc(-c3ccc(F)cc3)c(Cc3cccc(Cl)c3)n2c1 | inconclusive [cytotoxic, single point] |  |
| COc1cccc(CNC(=O)Cc2ccc(-c3ccccc3)cc2)c1 | inconclusive [cytotoxic, single point] |  |
| COc1ccc(C(=O)C[n+]2cn(C(F)F)c3ccccc32)c(F)c1 | active: 20.6 µM |  |
| Cc1cc(NC(=O)CCCN2C(=O)c3cccc4cccc(c34)C2=O)no1 | inconclusive [rising, partial curve, poor fit] |  |
| O=C(N/N=C/c1ccc[nH]1)c1cc(-c2cccs2)nc2ccccc12 |  | inconclusive: -39.4% [cytotoxic] |
| COc1ccc(S(=O)(=O)N2c3ccccc3OCC2C(C)(C)C)cc1 (stereo not given) |  | inactive: 14.9% |
| COc1ccc(NC(=O)Nc2nc(C(N)Cc3ccc(C(F)(F)F)cc3)cs2)cc1 (stereo not given) | inconclusive [cytotoxic, single point] |  |
| Cc1nc(NCCc2ccc(F)cc2)c2nnn(Cc3ccccc3)c2n1 |  | inactive: 23.7% |
| COC(=O)[C@]12CCCCC=C1N(CCC1=CCCCC1)C(=O)[C@H](CC(=O)NCc1cccc(C(F)(F)F)c1)C2 | inconclusive [cytotoxic, single point] |  |
| COc1ccccc1CNC(=O)C1CCN(Cc2nc(-c3cccc(Cl)c3)oc2C)CC1 |  | inactive: 0.431% |
| COc1cc(F)ccc1-c1cc(C(=O)NCc2ccc(F)cc2)[nH]n1 |  | inconclusive: 20.6% |
| C/C(Cn1nnc([N+](=O)[O-])n1)=N\NC(=O)c1ccccc1O | inconclusive [cytotoxic, single point] |  |
| Cc1ccc(NC(=O)C2CCN(S(=O)(=O)c3ccc(N4CCCC4=O)cc3)CC2)cc1Cl | inconclusive [cytotoxic, partial curve] |  |
| CNc1cc(CSC)nc(SCc2ccc(Cl)c(Cl)c2)n1 | inconclusive [cytotoxic, single point] |  |
| C[C@@H]1CCCCO[C@@H](CN(C)Cc2ccc3c(c2)OCO3)[C@@H](C)CN([C@H](C)CO)C(=O)c2cc(N(C)C)ccc2O1 |  | inactive: 1.61% |
